The list shows a part of the results.
Key:
Test in all cases: glycan array binding signal (z-score within array); higher = stronger binding
Settings in all cases: glycan notation: IUPAC condensed, linker removed
[1] = target: Fuc(a1-2)Gal(b1-4)Glc6S
Procedure, shortened: (§1)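 Arrays were curated from the Consortium for Functional Glycomics database, 3228 in total, and kept only where the protein sequence was available. Binding is expressed as a within-array Z-score. This score was averaged across arrays of the same protein sequence at different concentrations or buffers and across linkers, and negative values can be read as non-binding.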

[2] = target: Fuc(a1-2)Gal(b1-4)GlcNAc
Procedure, shortened: as §1

[3] = target: Fuc(a1-2)Gal(b1-4)GlcNAc(b1-2)Man
Procedure, shortened: as §1

[4] = target: Fuc(a1-2)Gal(b1-4)GlcNAc(b1-2)Man(a1-3)[Fuc(a1-2)Gal(b1-4)GlcNAc(b1-2)Man(a1-6)]Man(b1-4)GlcNAc(b1-4)GlcNAc
Procedure, shortened: as §1

[5] = target: Fuc(a1-2)Gal(b1-4)GlcNAc(b1-2)Man(a1-3)[Fuc(a1-2)Gal(b1-4)GlcNAc(b1-2)Man(a1-6)]Man(b1-4)GlcNAc(b1-4)[Fuc(a1-6)]GlcNAc
Procedure, shortened: as §1

[6] = target: Fuc(a1-2)Gal(b1-4)GlcNAc(b1-2)[Fuc(a1-2)Gal(b1-4)GlcNAc(b1-4)]Man(a1-3)[Fuc(a1-2)Gal(b1-4)GlcNAc(b1-2)Man(a1-6)]Man(b1-4)GlcNAc(b1-4)GlcNAc
Procedure, shortened: as §1

[7] = target: Fuc(a1-2)Gal(b1-4)GlcNAc(b1-3)Gal(b1-4)GlcNAc
Procedure, shortened: as §1

[8] = target: Fuc(a1-2)Gal(b1-4)GlcNAc(b1-3)Gal(b1-4)GlcNAc(b1-2)Man(a1-3)[Fuc(a1-2)Gal(b1-4)GlcNAc(b1-3)Gal(b1-4)GlcNAc(b1-2)Man(a1-6)]Man(b1-4)GlcNAc(b1-4)GlcNAc
Procedure, shortened: as §1

[9] = target: Fuc(a1-2)Gal(b1-4)GlcNAc(b1-3)Gal(b1-4)GlcNAc(b1-3)Gal(b1-4)GlcNAc
Procedure, shortened: as §1

[10] = target: Fuc(a1-2)Gal(b1-4)GlcNAc(b1-3)GalNAc
Procedure, shortened: as §1

[11] = target: Fuc(a1-2)Gal(b1-4)GlcNAc(b1-3)[Fuc(a1-2)Gal(b1-4)GlcNAc(b1-6)]GalNAc
Procedure, shortened: as §1

[12] = target: Fuc(a1-2)Gal(b1-4)GlcNAc(b1-3)[Fuc(a1-3)[Gal(b1-4)]GlcNAc(b1-6)]Gal(b1-4)Glc
Procedure, shortened: as §1

[13] = target: Fuc(a1-2)Gal(b1-4)GlcNAc(b1-6)GalNAc
Procedure, shortened: as §1

[14] = target: Fuc(a1-2)Gal(b1-4)GlcNAc6S
Procedure, shortened: as §1

[15] = target: Fuc(a1-2)Gal(b1-4)[Fuc(a1-3)]GlcNAc
Procedure, shortened: as §1

[16] = target: Fuc(a1-2)Gal(b1-4)[Fuc(a1-3)]GlcNAc(b1-2)Man(a1-3)[Fuc(a1-2)Gal(b1-4)[Fuc(a1-3)]GlcNAc(b1-2)Man(a1-6)]Man(b1-4)GlcNAc(b1-4)[Fuc(a1-6)]GlcNAc
Procedure, shortened: as §1

[17] = target: Fuc(a1-2)Gal(b1-4)[Fuc(a1-3)]GlcNAc(b1-2)[Fuc(a1-2)Gal(b1-4)[Fuc(a1-3)]GlcNAc(b1-4)]Man(a1-3)[Fuc(a1-2)Gal(b1-4)[Fuc(a1-3)]GlcNAc(b1-2)Man(a1-6)]Man(b1-4)GlcNAc(b1-4)GlcNAc
Procedure, shortened: as §1

[18] = target: Fuc(a1-2)Gal(b1-4)[Fuc(a1-3)]GlcNAc(b1-3)Gal(b1-4)[Fuc(a1-3)]GlcNAc
Procedure, shortened: as §1

[19] = target: Fuc(a1-2)Gal(b1-4)[Fuc(a1-3)]GlcNAc(b1-3)Gal(b1-4)[Fuc(a1-3)]GlcNAc(b1-3)Gal(b1-4)[Fuc(a1-3)]GlcNAc
Procedure, shortened: as §1

[20] = target: Fuc(a1-2)Gal(b1-4)[Fuc(a1-3)]GlcNAc(b1-3)GalNAc
Procedure, shortened: as §1

[21] = target: Fuc(a1-2)Gal(b1-4)[Fuc(a1-3)]GlcNAc(b1-3)[Neu5Ac(a2-6)Gal(b1-4)GlcNAc(b1-6)]Gal(b1-4)Glc
Procedure, shortened: as §1

[22] = target: Fuc(a1-2)Gal3S(b1-4)GlcNAc
Procedure, shortened: as §1

[23] = target: Fuc(a1-2)Gal6S(b1-3)GlcNAc
Procedure, shortened: as §1

B1: Als3-2 (Candida albicans) (protein)
chain: KTITGVFNSFNSLTWSNAATYNYKGPGTPTWNAVLGWSLDGTSASPGDTFTLNMPCVFKFTTSQTSVDLTAHGVKYATCQFQAGEEFMTFSTLTCTVSNTLTPSIKALGTVTLPLAFNVGGTGSSVDLEDSKCFTAGTNTVTFNDGGKKISINVDFERSNVDPKGYLTD
For B1, the “glycan array binding signal (z-score)” value [1] was -0.225, the “glycan array binding signal (z-score)” value [2] was -0.585 and the “glycan array binding signal (z-score)” value [3] was -0.542. The “glycan array binding signal (z-score)” value [4] was -0.706, the “glycan array binding signal (z-score)” value [5] was -0.536 and the “glycan array binding signal (z-score)” value [6] was -0.534. For the same binder, the “glycan array binding signal (z-score)” value [7] was -0.561, the “glycan array binding signal (z-score)” value [8] was 0.533 and the “glycan array binding signal (z-score)” value [9] was -0.596. The “glycan array binding signal (z-score)” value [10] was 9.17, the “glycan array binding signal (z-score)” value [11] was 1.09 and the “glycan array binding signal (z-score)” value [12] was -0.649. The “glycan array binding signal (z-score)” value [13] was 0.696, the “glycan array binding signal (z-score)” value [14] was -0.281 and the “glycan array binding signal (z-score)” value [15] was -0.609. The “glycan array binding signal (z-score)” value [16] was 0.334, the “glycan array binding signal (z-score)” value [17] was 0.327 and the “glycan array binding signal (z-score)” value [18] was -0.615. The “glycan array binding signal (z-score)” value [19] was -0.635, the “glycan array binding signal (z-score)” value [20] was 0.952 and the “glycan array binding signal (z-score)” value [21] was -0.606. The “glycan array binding signal (z-score)” value [22] was 0.7 and the “glycan array binding signal (z-score)” value [23] was -0.086.

Reference: the supplement of paper PMC8728848
